# From PubChem BioAssay AID504706 (National Center for Advancing Translational Sciences (NCATS), 2011)
# In all, about 320,000 compounds went through this assay and about 200 (0.062%) were called active. Inconclusive results, whose numbers are uncertain, are shown with a selection of clear calls. The call rests on the fitted dose curve; in most records, active means well fitted activation curve with a large enough effect; inconclusive means small, poorly fitted or top-dose-only effect; inactive means no such curve, though single readings can be large or run the other way. No potency is given beside an inconclusive call; the fits are too rough.
# Assay: qHTS assay for re-activators of p53 using a Luc reporter; further: nearly all actives have a fitted effect of over 45% in size
# Conditions: H1299 p53-A138V BP100-luciferase reporter, luminescence, 24 h; series mostly up to 92.2 µM
# Summary of the method: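 H1299 (p53-null), stable ts p53-A138V + BP100-Luc; 1000 cells/well, Opti-MEM/10% FBS; cpd 4 pt, 1:5; 24 h, 37 deg C, 5% CO2; detection reagent 10 min RT; luminescence.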
# Potency means the concentration at half of the fitted maximal effect; tags describe the fitted curve by direction and shape.
row,Structure (SMILES),Potency
1,COc1ccccc1-c1nnc(SCC(=O)O)n1C,"inconclusive [activator, single point]"
2,Cc1nc2ccccc2c(=O)n1/N=C/c1ccc(N(C)C)cc1,"inconclusive [activator, single point]"
3,Cc1ccc2cc(C3C(C#N)=C(N)Oc4c3ccc3cccnc43)c(=O)[nH]c2c1 (stereo unspecified),"inconclusive [activator, single point]"
4,O=C(c1cc2c(=O)n3ccccc3nc2s1)N1CCOCC1,"inconclusive [activator, partial curve, poor fit]"
5,O=c1[nH]c(CCl)nc2cc(-c3ccc(Cl)cc3)sc12,"inconclusive [activator, full curve, poor fit]"
6,CC(=O)NCCc1ccc(C(=O)COC(=O)c2cc(C)oc2C)cc1,"inconclusive [activator, full curve]"
7,Nc1nc(-c2cc(-c3ccccc3)no2)cs1,"inconclusive [activator, full curve, poor fit]"
8,CSc1ccc(C(=S)N2CCCCCC2)cc1,"inconclusive [activator, single point]"
9,COc1ccc(OCc2nc3ccccc3[nH]2)cc1,"inconclusive [activator, partial curve, poor fit]"
10,Cc1ccccc1CC(=O)OCC(=O)Nc1ccc(C)c(S(=O)(=O)N2CCCCC2)c1,"inconclusive [activator, single point]"
11,O=C(NNc1nc(-c2ccc(F)cc2)cs1)c1ccccc1,"inconclusive [activator, single point]"
12,Cc1nc(NC(=O)c2ccc(Br)s2)sc1C(=O)N(C)C,"inconclusive [activator, full curve, poor fit]"
13,CC(C)c1nnc(NC(=O)CSc2ncn[nH]2)s1,"inconclusive [activator, partial curve, poor fit]"
14,O=C(Cc1ccc(Cl)cc1Cl)Nc1cccc(S(=O)(=O)Nc2ccccc2F)c1,inactive
15,Cc1ccc2nc(-c3ccc(SCC(=O)Nc4nc(C)cs4)nc3)[nH]c2c1,"inconclusive [activator, partial curve, poor fit]"
16,Cc1ccc(/C=C/C(=O)Nc2cc(S(=O)(=O)N3CCOCC3)ccc2N2CCOCC2)cc1,"inconclusive [activator, single point]"
17,O=C(COC(=O)c1nc(Cl)c(Cl)c(Cl)c1Cl)NCc1ccccc1,"inconclusive [activator, single point]"
18,CCCCc1nnc(NC(=O)c2oc3ccc(OC)cc3c2C)s1,inactive
19,Cc1ccc(-c2cc(C(=O)NCc3ccco3)no2)cc1,"inconclusive [activator, partial curve, poor fit]"
20,CCOc1ccc(C(=O)c2ccc(OCC)c(N)c2)cc1N,"inconclusive [activator, full curve, poor fit]"
21,COC(=O)c1ccc(-n2nnnc2SCc2nn[nH]n2)cc1,"inconclusive [activator, partial curve, poor fit]"
22,CC(C)Nc1nc(-c2cccnc2)nc(-c2ccc(Cl)cc2)c1C#N,inactive
23,C#CCOC(=O)Nc1ccc(=O)n(Cc2c(Cl)cccc2Cl)c1,inactive
24,CCOc1ccc(NC(=O)CN2C(=O)C3CC=CCC3C2=O)cc1 (stereo unspecified),"inconclusive [activator, partial curve, poor fit]"

row,Structure (SMILES),Potency
1,Cc1cccc(C(=O)NNC(=O)c2ccc(F)cc2)c1,"inconclusive [activator, single point]"
2,Cn1nnnc1SCc1nc2ccccc2s1,"inconclusive [activator, partial curve, poor fit]"
3,CC(C)N1C(=O)C(=O)N(CC(=O)N(C)c2ccccc2)C1=O,inactive
4,O=C(/C=C/c1c(Cl)cccc1Cl)Nc1ccncc1,"inconclusive [activator, partial curve, poor fit]"
5,O=C(CSc1ccccc1)Nc1nnc(C2CC2)s1,"inconclusive [activator, partial curve, poor fit]"
6,O=C(NCc1cccs1)Nc1ccc(Cl)cc1,"inconclusive [activator, partial curve]"
7,Fc1ccccc1COc1ccc(Br)cc1CNCc1cccnc1,inactive
8,c1ccc(Cn2nnc3c(NCC4CCCO4)ncnc32)cc1 (stereo unspecified),"inconclusive [activator, partial curve, poor fit]"
9,Cc1ccc(C(=O)O)cc1N=Cc1cc(Br)cc(Br)c1O,"inconclusive [activator, single point]"
10,CC(C)c1ccc2oc(-c3ccc(NC(=O)c4ncn[nH]4)cc3)nc2c1,"inconclusive [activator, partial curve, poor fit]"
11,O=C(NNc1ncnc2c1cnn2-c1ccc(F)cc1)c1ccco1,inactive
12,Cc1nc(N)sc1N=Nc1ccc(Br)cc1,"inconclusive [activator, partial curve, poor fit]"
13,OCCNc1nc(NCc2ccccc2)c2ccccc2n1,"inconclusive [activator, partial curve, poor fit]"
14,Cc1cccc(N2CCN(C(=O)c3cccc(N4CCCC4=O)c3)C(C)C2)c1 (stereo unspecified),inactive
15,CC(C)c1ccc(N)c(S(=O)(=O)O)c1,inactive
16,O=C(c1ccc(COc2ccccc2[N+](=O)[O-])o1)N1CCCCC1,"inconclusive [activator, single point]"
17,CCC(COC(=O)Nc1cccc(C)c1)NC(=O)OCC(C)C (stereo unspecified),"inconclusive [activator, partial curve, poor fit]"
18,O=C(Nc1ncccn1)c1cc([N+](=O)[O-])cc([N+](=O)[O-])c1,inactive
19,O=C(Nc1ccccc1OC(F)F)c1ccc(-n2cncn2)c([N+](=O)[O-])c1,inactive
20,CN(C)S(=O)(=O)c1ccc(C(=O)Nc2nnc(SCC(=O)NCC3CCCO3)s2)cc1 (stereo unspecified),inactive
21,COc1ccccc1NC(=O)COC(=O)c1c(C)nn(-c2ccccc2)c1C,"inconclusive [activator, full curve, poor fit]"
22,CCS(=O)(=O)c1nn2c(N)c(/C=C3/C=CC(=O)C(OC)=C3)c(=O)nc2s1,inactive
23,COc1cc(NC(=S)NCCCN(C)C)c(OC)cc1NC(=O)c1ccco1,inactive
24,Cc1cccnc1NC(=S)Nc1ncccc1C,"inconclusive [activator, full curve, poor fit]"

row,Structure (SMILES),Potency
1,CCCCC(=O)NNC(=S)NC(=O)CCC,"inconclusive [activator, single point]"
2,COc1ccc(N=C(C)C2=C(O)c3ccccc3C2=O)cc1,"inconclusive [activator, partial curve, poor fit]"
3,COCCN1CCN(C(=O)c2cc(COc3ccc(F)cc3F)on2)CC1,inactive
4,CN(Cc1cccnc1)C(=O)c1cc(S(=O)(=O)Nc2ccccc2F)ccc1Cl,inactive
5,Oc1ccc(-c2cn3ccccc3n2)cc1O,"inconclusive [activator, partial curve, poor fit]"
6,O=C(CCN1C(=O)c2ccccc2C1=O)NCCC1=CCCCC1,"inconclusive [activator, partial curve, poor fit]"
7,O=C(NCCc1ccccc1)C1=COCCO1,"inconclusive [activator, full curve, poor fit]"
8,COc1ccc(/C=N/n2cnnc2SCc2ccc(OC)cc2)cc1,inactive
9,CCc1nnc(NC(=O)c2ccc(COc3ccccc3)o2)s1,"inconclusive [activator, partial curve, poor fit]"
10,COc1ccc2nc(NC(=O)CSCC(=O)Nc3cc(C)on3)sc2c1,"inconclusive [activator, single point]"
11,COc1ccc(Nc2cccc3ccccc23)cc1,"inconclusive [activator, partial curve, poor fit]"
12,CC(NC(=O)c1ccccc1Cl)NC(=O)c1ccccc1Cl,"inconclusive [activator, single point]"
13,COc1ccc(C(=O)CCN2CCN(c3ccccc3OC)CC2)cc1,inactive
14,CC1=CC(=C2C(=O)c3ccccc3C2=O)C=C(C)N1C,"inconclusive [activator, single point]"
15,CN(C)c1cccc(C(=O)NNC(=O)CN2C(=O)C3CC=CCC3C2=O)c1 (stereo unspecified),active: 44.7 µM
16,O=c1oc2ccc(Cl)cc2cc1-c1nnc(Nc2cccc(C(F)(F)F)c2)s1,inactive
17,Cc1ccc(C)c(N(CC(=O)NC(C)(C)C)C(=O)CCC(=O)Nc2nccs2)c1,"inconclusive [activator, single point]"
18,Cc1nc2ccc(NC(=O)NCCO)cc2s1,"inconclusive [activator, partial curve, poor fit]"
19,CCCCCCc1cc2cc(C(=O)NCc3ccccc3)c(=N)oc2cc1O,inactive
20,COc1cccc(OCc2cc(C(=O)N3CCN(c4ccccc4OC)CC3)no2)c1,"inconclusive [activator, partial curve, poor fit]"
21,Cc1ccsc1/C=C/C1=Cc2c(sc(NC(=O)CSc3n[nH]c(N)n3)c2C#N)C(C)(C)C1,inactive
22,CCOc1cc(/C=N\NC(=O)c2ccc(NC(=O)C(C)(C)C)cc2)ccc1OC(=O)c1ccc(OC)cc1,inactive
23,c1ccc(-c2ncc(-c3ccn[nH]3)s2)cc1,"inconclusive [activator, full curve, poor fit]"
